Structures can show the parent of a compound that is named as a salt. The list shows a part of the results. Rule as the data show it: active = 0.5 or less and inactive = the rest. Repeats are few or missing, and single values can be far off.
Key:
Details in all cases: 50 µM; 24 h
[1] = test system: HeLa VPS33A reporter cells; experiment: relative cell viability (CellMask signal) vs DMSO (fraction of DMSO); higher = less cytotoxic;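 also: primary screen of an FDA-approved drug library in HeLa reporter cells in 96-well format, CellMask signal normalized to DMSO-treated wells set as 1, under 0.5 deemed highly cytotoxic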
[2] = test system: HeLa VPS33A R498W KI + HA-SDC1-FLAG; experiment: relative GAG core protein HA-SDC1 amount per cell number vs DMSO (fraction of DMSO); higher = more SDC1 (GAG core protein);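 also: HA-SDC1 level read out by In-Cell Western staining with an anti-HA antibody against the N-terminal tag, screening FDA-approved library drugs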
[3] = test system: HeLa VPS33A KO + NLuc-VPS33A R498W; experiment: relative mutant VPS33A R498W amount (NanoLuc luminescence) vs DMSO (fraction of DMSO); HeLa model of a glycosaminoglycan (GAG) storage disease; KI is knock-in and KO knock-out; SDC1 is syndecan 1; higher = higher mutant VPS33A level;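 also: screen of an FDA-approved drug library, NanoLuc luminescence read after lysing the treated cells, taken as a measure of mutant VPS33A protein stability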

SMILES | relative cell viability [1] | relative GAG core protein HA-SDC1 amount per cell number [2] | relative mutant VPS33A R498W amount [3]
CN1CCN(c2cc3c(cc2F)c(=O)c(C(=O)O)cn3-c2ccc(F)cc2)CC1 [Difloxacin HCl] | 1.54 | inactive: 0.955 | 1.11
CCCc1cc(C(N)=S)ccn1 [Protionamide] | 1.03 | inactive: 0.885 | 0.849
CCN1CCC[C@H]1CNC(=O)c1cc(S(N)(=O)=O)ccc1OC [Levosulpiride] | 0.946 | inactive: 1.33 | 1.61
CNCc1cc(-c2ccccc2F)n(S(=O)(=O)c2cccnc2)c1 | 1.13 | inactive: 1.04 | 0.858
CN(CCOc1ccc(NS(C)(=O)=O)cc1)CCc1ccc(NS(C)(=O)=O)cc1 [Dofetilide] | 1.07 | inactive: 1.03 | 0.865
O=c1oc2c(O)c(O)cc3c(=O)oc4c(O)c(O)cc1c4c23 [Ellagic acid] | 1.23 | inactive: 1.3 | 0.815
NC(=O)OCC(COC(N)=O)c1ccccc1 [Felbamate] | 1.2 | inactive: 0.709 | 1.25
Cc1ccc(Cl)c(Nc2ccccc2C(=O)O)c1Cl [Meclofenamate Sodium] | 1.04 | active: 0.423 | 0.461
N=C(N)NCCC[C@@H](NC(=O)[C@@H]1CCCN1C(=O)[C@@H]1CSSCCC(=O)N[C@@H](Cc2ccc(O)cc2)C(=O)N[C@@H](Cc2ccccc2)C(=O)N[C@@H](CCC(N)=O)C(=O)N[C@@H](CC(N)=O)C(=O)N1)C(=O)NCC(N)=O [Desmopressin] | 1.05 | inactive: 1.4 | 1.13
Nc1ccc(S(=O)(=O)Nc2ccnn2-c2ccccc2)cc1 [Sulfaphenazole] | 1.02 | inactive: 0.794 | 1.39
COc1ccc2c3c1O[C@H]1C[C@@H](O)C=C[C@@]31CCN(C)C2 [Galanthamine HBr] | 1.13 | inactive: 1.12 | 1.17
Oc1ccc(/C=C/c2cc(O)cc(O)c2)cc1 [Resveratrol] | 0.933 | inactive: 0.72 | 0.47
COc1cc2nccc(Oc3ccc(NC(=O)Nc4cc(C)on4)c(Cl)c3)c2cc1OC [Tivozanib (AV-951)] | 0.864 | inactive: 0.66 | 0.516
CC(C)NCC(O)c1ccc(O)c(O)c1 (stereo unspecified) [Isoprenaline HCl] | 1.2 | inactive: 0.81 | 1.19
CC(=O)[C@H]1CC[C@H]2[C@@H]3C=CC4=CC(=O)CC[C@@]4(C)[C@@H]3CC[C@]12C [Dydrogesterone] | 0.887 | inactive: 0.668 | 1.01
CC[C@@H]1C(=O)OC[C@@H]1Cc1cncn1C [Pilocarpine HCl] | 0.902 | inactive: 0.992 | 0.895
CC(C)(Oc1ccc(C(=O)c2ccc(Cl)cc2)cc1)C(=O)O [Fenofibric acid] | 1.11 | inactive: 0.93 | 1.23
Clc1ccccc1CN1CCc2sccc2C1 [Ticlopidine HCl] | 1.01 | inactive: 0.822 | 0.661
Nc1c(CC(=O)O)cccc1C(=O)c1ccccc1 [Amfenac Sodium Monohydrate] | 1.15 | inactive: 1.08 | 1.01

SMILES | relative cell viability [1] | relative GAG core protein HA-SDC1 amount per cell number [2] | relative mutant VPS33A R498W amount [3]
COc1cc2c(cc1OC)C(=O)C(CC1CCN(Cc3ccccc3)CC1)C2 (stereo unspecified) [Donepezil HCl] | 0.882 | inactive: 1.33 | 1.07
Cc1c(-c2ccnn2C)cc(C(=O)NCc2ccc(S(C)(=O)=O)cn2)c(=O)n1-c1cccc(C(F)(F)F)c1 [Alvelestat] | 1.22 | inactive: 1.2 | 0.985
NC[C@H](O)c1ccc(O)c(O)c1 [Noradrenaline bitartrate monohydrate] | 0.934 | inactive: 1.11 | 1.36
CC(=O)[C@@]1(O)CC[C@H]2[C@@H]3CCC4=CC(=O)CCC4=C3[C@@H](c3ccc(N(C)C)cc3)C[C@@]21C [Ulipristal] | 0.88 | active: 0.224 | 0.848
CC(C)(C(=O)O)c1ccc(C(O)CCCN2CCC(C(O)(c3ccccc3)c3ccccc3)CC2)cc1 (stereo unspecified) [Fexofenadine HCl] | 1.03 | inactive: 1.37 | 1.56
O=C(O)CCNC(=O)c1ccc(/N=N/c2ccc(O)c(C(=O)O)c2)cc1 [Balsalazide] | 0.959 | inactive: 0.87 | 1.08
CN1CCC(=C2c3ccccc3CCc3sccc32)CC1 [Pizotifen Malate] | 0.881 | active: 0.371 | 0.44
CC(C)OC(=O)OCOP(=O)(CO[C@H](C)Cn1cnc2c(N)ncnc21)OCOC(=O)OC(C)C [Tenofovir Disoproxil Fumarate] | 1.04 | inactive: 1.31 | 1.56
COc1ccc2c(c1OC)C(=O)O[C@@H]2[C@H]1c2c(cc3c(c2OC)OCO3)CCN1C [Noscapine HCl] | 0.756 | active: 0.321 | 0.793
CC#CC(=O)N1CCC[C@H]1c1nc(-c2ccc(C(=O)Nc3ccccn3)cc2)c2c(N)nccn12 | 1 | inactive: 0.819 | 0.141
COc1ccc2cc3[n+](cc2c1OC)CCc1cc2c(cc1-3)OCO2 [Berberine] | 1.02 | active: 0.399 | 0.886
CN(C)CCOC(c1ccccc1)c1ccccc1 [Diphenhydramine HCl] | 0.986 | inactive: 0.907 | 1.19
OCC(CO)N[C@H]1C[C@](O)(CO)[C@@H](O)[C@H](O)[C@H]1O [Voglibose] | 1.01 | inactive: 0.878 | 1.26
COC1=CC(=O)C[C@@H](C)[C@]12Oc1c(Cl)c(OC)cc(OC)c1C2=O [Griseofulvin] | 0.833 | active: 0.286 | 1.11
CCOC(=O)C1=C[C@]2(CC)CCCN3CCc4c(n1c1ccccc41)[C@@H]32 [Vinpocetine] | 1.01 | inactive: 0.904 | 0.726
CCNC(=O)CC[C@H](N)C(=O)O [L-Theanine] | 0.928 | inactive: 0.864 | 1.02
CC(C(=O)O)c1ccc2c(c1)CC(=O)c1ccccc1S2 (stereo unspecified) [Zaltoprofen] | 0.997 | inactive: 0.843 | 1.1
O=C(O)[C@H]1O[C@@H](Oc2cc3oc(-c4ccc(O)cc4)cc(=O)c3c(O)c2O)[C@H](O)[C@@H](O)[C@@H]1O [Scutellarin] | 1.02 | inactive: 1.07 | 1.78
